Data reported in US20250297009A1 (BIOTHEUS, published 2025).

T1: Human TGF-β3 (PeproTech, 100-36E) (human, UniProt P10600 301-412)
T1 sequence (looked up): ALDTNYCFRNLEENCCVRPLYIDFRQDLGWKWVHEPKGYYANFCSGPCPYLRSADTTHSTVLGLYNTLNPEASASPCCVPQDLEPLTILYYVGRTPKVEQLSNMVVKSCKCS

T2: Cynomolgus monkey PD-1-his protein (cynomolgus monkey PD-1 extracellular domain with his tag) (cynomolgus monkey, UniProt Q15116 part only (human entry))
T2 construct: also called Cyno PD-1-his; not shown: his tag
T2 chain: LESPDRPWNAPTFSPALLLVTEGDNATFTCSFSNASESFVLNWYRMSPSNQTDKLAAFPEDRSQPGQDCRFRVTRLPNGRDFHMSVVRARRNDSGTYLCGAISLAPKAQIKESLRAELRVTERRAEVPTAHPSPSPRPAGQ


What was measured:
[1] = target: T3, human PD-1 (Uniprot: Q15116) on cells (human, UniProt Q15116 25-288); assay: flow cytometry on CHO cells overexpressing human PD-1; without TGF-β1
T3 construct: whole, on cells; The cell type is named under assay or readout; also called CHO-huPD-1 cells; CHO cells overexpressing human PD-1

[2] = target: T4, Human TGF-β1 (Acrobiosystems, TG1-H421) (human, UniProt P01137 part only); assay: co-binding ELISA, TGF-β1 coated, detection with biotin-huPD-1 and streptavidin-HRP
T4 construct: also called human TGF-β1 protein

[3] = target: T3, human PD-1 (Uniprot: Q15116) on cells; assay: flow cytometry blocking assay on CHO cells overexpressing human PD-1; blocked ligand: human PD-L1; without TGF-β1
T3 sequence (Q15116 25-288): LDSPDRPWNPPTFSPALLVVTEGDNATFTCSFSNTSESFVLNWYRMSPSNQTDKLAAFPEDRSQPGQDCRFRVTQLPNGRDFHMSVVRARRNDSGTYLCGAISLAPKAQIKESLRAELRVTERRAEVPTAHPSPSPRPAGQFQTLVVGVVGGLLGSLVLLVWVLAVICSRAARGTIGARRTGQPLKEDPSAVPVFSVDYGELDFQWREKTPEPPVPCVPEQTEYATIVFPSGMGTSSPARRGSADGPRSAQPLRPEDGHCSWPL

[4] = target: T3, human PD-1 (Uniprot: Q15116) on cells; assay: flow cytometry on CHO cells overexpressing human PD-1; 54872-TGF-βRII pre-incubated with human TGF-β1
[5] = target: T3, human PD-1 (Uniprot: Q15116) on cells; assay: flow cytometry on CHO cells overexpressing human PD-1, fluorescent secondary antibody
[6] = target: human PD-1 protein (ELISA coat or Biotin-PD-1 of Example 16) (human, UniProt Q15116 part only, limits assumed); assay: co-binding ELISA, human PD-1 protein coated, detection with biotin anti-TGF-βRII antibody and streptavidin-HRP
[7] = target: T4, Human TGF-β1 (Acrobiosystems, TG1-H421); assay: ELISA, human TGF-β1 coated, mouse anti-human Fc-HRP detection
T4 sequence (P01137 279-390 limits assumed): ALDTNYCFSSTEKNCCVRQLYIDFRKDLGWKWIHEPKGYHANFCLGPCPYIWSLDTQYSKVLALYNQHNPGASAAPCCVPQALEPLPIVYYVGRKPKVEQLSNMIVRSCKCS

[8] = target: T5, cynomolgus monkey PD-1 (Uniprot: BOLAJ3 as printed) on CHO-S cells (cynomolgus monkey); assay: flow cytometry on CHO cells overexpressing cynomolgus monkey PD-1 according to legend paragraph 157 and Example 11 (the title on the sheet prints CHO-huPD-1), fluorescent secondary antibody
T5 construct: whole, on cells; also called CHO-cynoPD-1 cells; CHO cells overexpressing cynomolgus monkey PD-1

[9] = target: T3, human PD-1 (Uniprot: Q15116) on cells; assay: flow cytometry blocking assay on CHO cells overexpressing human PD-1; blocked ligand: human PD-L1; 54872-TGF-βRII pre-incubated with human TGF-β1
[10] = target: T1, Human TGF-β3 (PeproTech, 100-36E); assay: ELISA, human TGF-β3 coated, mouse anti-human Fc-HRP detection
[11] = target: T3, human PD-1 (Uniprot: Q15116) on cells; assay: flow cytometry on CHO-S cells overexpressing human PD-1
Description: (§1) By transfecting human PD-1 (Uniprot: Q15116), cynomolgus monkey PD-1 (Uniprot: BOLAJ3) cDNA pCHO1.0 vector (purchased from Invitrogen) into CHO-S cellsand following with pressure screening, CHO-S cells overexpressing human PD-1 (CHO-huPD-1 cells) and CHO-S cells overexpressing cynomolgus monkey PD-1 (CHO-cynoPD-1 cells) were produced. The overexpressed cells after expansion culture were adjusted to the appropriate cell density and added to a 96-well flow plate, centrifuged and then added with gradiently diluted samples, and incubated at 4° C. for 30 minutes. Washing was performed twice with PBS, fluorescent secondary antibody correspondingly diluted to the appropriate concentration was added, incubated at 4° C. for 30 minutes, and washed twice with PBS. The cells were resuspended in PBS, and detected on a CytoFlex flow cytometer, and the corresponding MFI was calculated. Graphpad software was used for graphical analysis to obtain EC₅₀ values.

[12] = target: T5, cynomolgus monkey PD-1 (Uniprot: BOLAJ3 …); assay: flow cytometry on CHO-S cells overexpressing cynomolgus monkey PD-1
Description: as §1

[13] = target: T3, human PD-1 (Uniprot: Q15116) on cells; assay: flow cytometry, competition with bio-human PD-L1-Fc (0.5 µg/mL) on CHO-huPD-1 cells
[14] = target: T6, Human PD-1-his protein (human PD-1 extracellular domain with his tag) (human, UniProt Q15116 part only); assay: BLI (ForteBio), Fc-scFv loaded on AHQ sensor, 100 nM PD-1-his in solution, monovalent, 1:1 model
T6 construct: also called PD-1-his antigen; not shown: his tag
Description: (§2) The binding dissociation constant (KD) values of the antibody obtained in Example 1 binding to human and cynomolgus monkey PD-1 were determined by biofilm optical interference technology (ForteBio). Fortebio affinity determination was carried out according to the existing method (Este, P et al. High throughput solution-based measurement of antibody-antigen affinity and epitope binning. Mabs, 2013.5(2): p. 270-8), and the extracellular amino acid sequences of human and cynomolgus monkey PD-1 were as set forth in SEQ ID NO:20 and 21, respectively.
(§3) The sensor loaded with antibody was exposed to 100 nM PD-1-his antigen until the plateau phase, and then the sensor was transferred to the assay buffer for at least 2 minutes for dissociation rate measurement. The kinetic analysis was performed using a 1:1 binding model.

[15] = target: T2, Cynomolgus monkey PD-1-his protein …; assay: as above
Description: as §2, §3

Row | EC50 (read off the curve) [1] [nM] | EC50 (read off the curve) [2] [nM] | IC50 (read off the curve) [3] [nM] | EC50 (read off the curve) [4] [nM] | EC50 (read off the curve) [5] [nM] | EC50 (read off the curve) [6] [nM] | EC50 (read off the curve) [7] [nM] | EC50 (read off the curve) [8] [nM] | IC50 (read off the curve) [9] [nM] | EC50 (read off the curve) [10] [nM] | EC50 [11] [nM] | EC50 [12] [nM] | IC50 [13] [nM] | Kd [14] [nM] | Kd [15] [nM] | Binder
1 | ~9 | ~0.7 | ~7 | ~7 | ~9 | ~0.07 | ~0.3 | ~10 | ~7 | ~0.2 | – | – | – | – | – | anti-PD-1/TGF-β fusion protein 54872-TGF-βRII (other, also called PD-1 antibody/TGF-βRII extracellular region fusion protein) heavy: QVQLVQSGAEVKKPGASVKVSCKASGYTFTEYYIYWVRQAPGQGLEWIGGINPSNGGTNFNEKFKPRVTMTVDTSTSTAYMELSSLRSEDTAVYYCTVRDFRFDKGFKYWGQGTLVTVSSASTKGPSVFPLAPSSKSTSGGTAALGCLVKDYFPEPVTVSWNSGALTSGVHTFPAVLQSSGLYSLSSVVTVPSSSLGTQTYICNVNHKPSNTKVDKKV[sequence of human IgG1 Fc with changes not given]GGGGAGGGGAGGGGAGGGGAGIPPHVQKSVNNDMIVTDNNGAVKFPQLCKFCDVRFSTCDNQKSCMSNCSITSICEKPQEVCVAVWRKNDENITLETVCHDPKLPYHDFILEDAASPKCIMKEKKKPGETFFMCSCSSDECNDNIIFSEEYNTSNPD light: EIVLTQSPATLSLSPGERATLSCRASKSVSTSGLNYVHWYQRKPGQAPRLLIYLGSYLDSGVPARFSGSGSGTDFTLTISSLEPEDFAVYYCQQSWELPLTFGGGTKVEIKRTVAAPSVFIFPPSDEQLKSGTASVVCLLNNFYPREAKVQWKVDNALQSGNSQESVTEQDSKDSTYSLSSTLTLSKADYEKHKVYACEVTHQGLSSPVTKSFNRGEC
2 | – | – | – | – | – | – | – | – | – | – | 5.74 | 6.45 | 7.14 | 1.17 | 1.05 | ADI-54872-1 (anti-PD-1 scFv derivative, Fc-scFv) (Fc fusion, Fc at the N-terminus of the scFv; also called anti-PD-1 scFv molecule; anti-PD-1 Fc-scFv protein) [sequence of human IgG1 Fc not given]GGGSGGGGSQVQLVQSGAEVKKPGASVKVSCKASGYTFTEYYIYWVRQAPGQCLEWIGGINPSNGGTNFNEKFKPRVTMTVDTSTSTAYMELSSLRSEDTAVYYCTVRDFRFDKGFKYWGQGTLVTVSSGGGGSGGGGSGGGGSGGGGSEIVLTQSPATLSLSPGERATLSCRASKSVSTSGLNYVHWYQRKPGQAPRLLIYLGSYLDSGVPARFSGSGSGTDFTLTISSLEPEDFAVYYCQQSWELPLTFGCGTKVEIK
3 | – | – | – | – | – | – | – | – | – | – | 4.82 | 5.18 | 6.11 | 0.39 | 0.238 | ADI-63628 (anti-PD-1 scFv derivative, Fc-scFv) (Fc fusion, Fc at the N-terminus of the scFv) [sequence of human IgG1 Fc not given]GGGAGGGGAQVQLVQSGAEVKKPGASVKVSCKASGFTFTEYYIYWVRQAPGQCLEWIGGINPSNGGTNFNEKFKPRVTMTVDTSTSTAYMELSSLRSEDTAVYYCTVRDFRFDKGFKYWGQGTLVTVSSGGGGSGGGGSGGGGSGGGGSEIVLTQSPATLSLSPGERATLSCRASKSVSTSGLNYVHWYQRKPGQAPRLLIYLGSYRDSGVPARFSGSGSGTDFTLTISSLEPEDFAVYYCQQSWELPLTFGCGTKVEIK
